The values below come from patent publication US4431809A, “Antibiotic A-33853 derivatives” (Eli Lilly and Company, priority 1982, dated 1984).

Holding throughout (type): cell-based
The subject of one assay is Streptococcus.
Another assay deals with Vaccinia. As to the kind of experiment: In vitro antiviral activity, Vaccinia. As to conditions: in words.
A further assay concerns Echo 10. As to the kind of experiment: In vitro antiviral activity, Echo 10. The settings on record: Echo 10, in words.
For a further assay, the system named is Polio virus type III. As to conditions: in words.
The test system of a further assay is Herpes virus type I. Put plainly: In vitro antiviral activity, Herpes virus type I. As to conditions: in words.
A further assay deals with Rhino virus. Put plainly: In vitro antiviral activity, Rhino virus. As to conditions: in words.
In a further assay the test system is Staphylococcus.
In assay [1] the test system is Ann Arbor influenza virus type A. Put plainly: In vitro antiviral activity, Ann Arbor influenza virus type A.
Assay [2] concerns Staphylococcus aureus S13E. The settings on record: 24 h.

≈ marks a conversion by molar mass, not a printed value. Read-outs that look alike come from different tables or passages of the source.

For orientation: MIC means the smallest concentration in the dilution series that meets the test's criterion for growth inhibition. High values mean a need for much substance, low ones inhibition by little substance.

Turning to `O=C(Nc1c(O)cccc1-c1nc2c(C(=O)O)cccc2o1)c1ncccc1O` [A-33853, 2-[3-hydroxy-2-[[(3-hydroxy-2-pyridinyl)carbonyl]amino]phenyl]-4-benzoxazolecarboxylic acid], the “growth inhibition in vitro” value in the assay on Streptococcus (some within the genus Streptococcus, in words) is listed as “inhibit the growth in vitro”; with Vaccinia it was “inhibits the growth in vitro”; with Echo 10, “inhibits the growth in vitro”; in the assay on Polio virus type III, “inhibits the growth in vitro”; in the assay on Herpes virus type I it was “inhibits the growth in vitro”; with Rhino virus, “inhibits the growth in vitro”. Also, the “growth inhibition in vitro” value in the assay on Staphylococcus (some within the genus Staphylococcus, in words) was “inhibit the growth in vitro”; in assay [1], “inhibits the growth in vitro”.
As for `CC(=O)Oc1cccnc1C(=O)N(C(C)=O)c1c(OC(C)=O)cccc1-c1nc2c(C(=O)O)cccc2o1` [triacetyl derivative], the “growth inhibition in vitro” value with Streptococcus and in the assay with Staphylococcus was “inhibit the growth in vitro” throughout. Also, the MIC in assay [2] was determined as 32 µg/mL (≈ 61.8 µM).
`CC(=O)Oc1cccnc1C(=O)Nc1c(OC(C)=O)cccc1-c1nc2c(C(=O)O)cccc2o1` [diacetyl derivative]: the “growth inhibition in vitro” value in the assay with Streptococcus and in the assay with Staphylococcus was “inhibit the growth in vitro” throughout. For the same compound, inhibition of growth in assay [2] (MIC) required 16 µg/mL (≈ 33.7 µM).
